Test results reported in PubChem BioAssay AID894 (National Center for Advancing Translational Sciences (NCATS), 2007).
Values joined by “and” are separate entries in the source; they are usually repeats but may differ in a detail not shown here. Equal entries are not always repeated. Hit rate of the full screen: of about 150,000 compounds, about 6,500 (4.3%) were called active. The shares of active, inactive and inconclusive entries below differ from those in the screen. The call rests on the fitted dose curve; in most records, active means well fitted inhibition curve with a large enough effect (not every such curve was filed as active); inconclusive means small, poorly fitted or top-dose-only effect, or another doubt; inactive means no such curve, though single readings can be large or run the other way. Potencies of inconclusive entries are doubtful fits and often do not repeat.
On the % scale 0 is the no-effect control and ±100 the full control effect; potency means the concentration at half of the fitted maximal effect; tags describe the fitted curve by direction and shape.

What follows are compounds tested against 15-hydroxyprostaglandin dehydrogenase [NAD(+)] (Homo sapiens) (UniProt P15428) (assay: qHTS Assay for Inhibitors of HPGD (15-Hydroxyprostaglandin Dehydrogenase)). Conditions: purified HPGD, NADH fluorescence kinetic, PGE2 substrate; activity change, negative = inhibition: stronger effect = lower value.
Chain of UniProt P15428 (P15428 whole entry, looked up): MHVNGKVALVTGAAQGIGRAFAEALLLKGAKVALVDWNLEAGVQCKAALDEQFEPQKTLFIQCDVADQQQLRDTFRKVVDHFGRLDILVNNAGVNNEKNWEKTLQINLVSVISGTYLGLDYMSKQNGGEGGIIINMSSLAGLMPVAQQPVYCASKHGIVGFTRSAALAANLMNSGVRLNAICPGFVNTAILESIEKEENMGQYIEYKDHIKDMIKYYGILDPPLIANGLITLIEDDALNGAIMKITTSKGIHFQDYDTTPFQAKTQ
Outline: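 NADH formation kinetics: reaction with 30 uM PGE2 and 1 mM NAD+ (final), 20 nM enzyme, Tris-HCl pH 8 with Tween 20, after 15 min compound preincubation at room temperature. Fluorescence change, last versus first of five reads.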
`CCN(c1ccccc1)S(=O)(=O)c1cc(C(=O)Nc2ccc(Br)cc2)ccc1F` was tested, and the Potency was inconclusive: 31.6 µM [inhibitor, single point]. `O=C(Nc1nccs1)c1ccccc1N=Cc1ccccc1` was tested, and the Potency was inconclusive: 35.5 µM [inhibitor, partial curve]. With `COc1ccc(-n2c(SCC(=O)NCC3CCCO3)nc3ccccc32)cc1` (stereo unspecified) the Potency was active: 10 µM. `CCCOc1ccccc1Cn1c(=O)oc2ccc(C)cc21` was tested, and the Potency was active: 25.1 µM. In the case of `O=[N+]([O-])C1=C(Nc2cccc3ccccc23)CS(=O)(=O)C1`, the Potency is reported as active: 20 µM. `Cn1c(=O)c(-c2ccccc2)nc2cnc(N3CCNCC3)nc21` was tested, and the Potency was inconclusive: 31.6 µM [inhibitor, partial curve]. For `O=C(C1CCCO1)N1CCN(C(=S)Nc2ccc(Cl)cc2)CC1` (stereo unspecified), the activity change, negative = inhibition was inactive: -14.1%. In the case of `COC(=O)C(CC(C)C)Oc1ccc2c(C)cc(=O)oc2c1` (stereo unspecified), the Potency is reported as inconclusive: 22.4 µM [inhibitor, partial curve]. `CCCc1cc(=O)[nH]c(SCC(=O)N2CCN(S(=O)(=O)c3ccccc3)CC2)n1` was tested, and the activity change, negative = inhibition was inactive: -5.91%. `CCOC(=O)C1=C(Cc2ccc(Cl)cc2)C(=O)c2ccccc2C1=O` was tested, and the Potency was active: 3.55 µM. In the case of `CSc1n[nH]c2nc3c(c(=O)n12)C1(CCCC1)Cc1ccccc1-3`, the Potency is reported as inconclusive: 14.1 µM [inhibitor, partial curve]. `COc1ccc(-c2cnnc(N/N=C/c3c(C)nn(-c4ccccc4)c3Cl)n2)cc1` was tested, and the Potency was inconclusive: 0.282 µM [inhibitor, full curve, poor fit]. With `CCOC(=O)N1CCN(C(=O)CN(c2cc(Cl)ccc2OC)S(=O)(=O)c2ccccc2)CC1` the activity change, negative = inhibition was inactive: -5.23%. In the case of `N#CC1=C2SCN(Cc3ccco3)CN2C(=O)CC1c1c(F)cccc1Cl` (stereo unspecified), the Potency is reported as active: 17.8 µM. `COc1ccc(C(=O)c2sc3nc(C)cc(-c4cccs4)c3c2N)cc1` was tested, and the activity change, negative = inhibition was inactive: -20.7%. For `CCN(CC)c1ccc(/C=N\NC(N)=O)cc1`, the Potency was inconclusive: 28.2 µM [inhibitor, partial curve]. For `CN(C)c1ccc(S(=O)(=O)c2ccc(Cl)cc2)cc1`, the Potency was inconclusive: 35.5 µM [inhibitor, partial curve]. For `COC(=O)c1ccc(CSc2nc3ccc(S(=O)(=O)N4CCOCC4)cc3[nH]2)cc1`, the Potency was active: 28.2 µM. With `O=C(N/N=C/c1ccncc1)c1cc([N+](=O)[O-])cc([N+](=O)[O-])c1O` the Potency was active: 28.2 µM. With `CCc1ccc2oc(=O)cc(CN3CCCCC3C)c2c1` (stereo unspecified) the Potency was inconclusive: 14.1 µM [inhibitor, partial curve]. `COc1ccc(NC(=S)NCCc2ccccc2)c(OC)c1` was tested, and the Potency was inconclusive: 28.2 µM [inhibitor, single point]. With `CC(=O)NCCC(=O)NCc1ccc(F)cc1` the activity change, negative = inhibition was inactive: -8.79%. With `Nc1cc(OC(=O)c2cccs2)nn1S(=O)(=O)c1ccc(F)cc1` the Potency was inconclusive: 15.8 µM [inhibitor, partial curve]. In the case of `CC(C)(C)OC(=O)NCC(=O)Oc1cc2oc(=O)cc(-c3ccccc3)c2cc1Cl`, the Potency is reported as inconclusive: 1.12 µM [inhibitor, full curve]. In the case of `CCOc1cccc(-c2cc(-c3n[nH]c(=S)n3CC)c3ccccc3n2)c1`, the Potency is reported as inconclusive: 14.1 µM [inhibitor, partial curve]. With `C=CCOc1ccc(C=Nc2cccc(Cl)c2)c(O)c1` the Potency was inconclusive: 28.2 µM [inhibitor, partial curve]. `CCOn1c(=O)c(-c2cccc([N+](=O)[O-])c2)[n+]([O-])c2ccccc21` was tested, and the Potency was inconclusive: 31.6 µM [inhibitor, single point]. With `COCC(=O)N1CCC2(CC1)CN(c1cccc(-c3ccccc3)c1)C2` the Potency was inconclusive: 31.6 µM [inhibitor, single point]. For `Cn1cccc1C(=O)N1CCC2(CCN(Cc3ccc(C#N)cc3)CC2)CC1`, the activity change, negative = inhibition was inactive: -14.5%. With `COc1cccc(CSc2nnc(CSc3nc4nc(C)cc(C)n4n3)s2)c1` the Potency was active: 15.8 µM. With `CCN(CC)C(=O)Oc1cc(=O)n2c3c(cccc13)CCC2` the Potency was inconclusive: 14.1 µM [inhibitor, partial curve]. `O=C(NC1=NCCS1)c1cc(-c2ccc(F)cc2)nc2ccccc12` was tested, and the activity change, negative = inhibition was inactive: -6.48%. With `CCCNC(=O)c1ccccc1NS(=O)(=O)c1ccc(OC)c(OC)c1` the Potency was inconclusive: 31.6 µM [inhibitor, partial curve]. In the case of `O=S(=O)(c1ccccc1)N1CCC2(CCN(c3ccncc3)CC2)CC1`, the activity change, negative = inhibition is reported as inactive: -6.39%. With `CCNC(=O)Cn1c(=O)c(=O)n(Cc2ccccc2)c2ccc(Cl)cc21` the Potency was inconclusive: 39.8 µM [inhibitor, partial curve, poor fit]. In the case of `CCCc1nnc(SCC(=O)N2CCOCC2)n1Cc1ccco1`, the activity change, negative = inhibition is reported as inactive: -2.55%. For `C/C(CC1CC(COCC(C)C)OC1=O)=N\Nc1nc(-c2ccccc2)cs1` (stereo unspecified), the activity change, negative = inhibition was inactive: -18.1%. With `CC1(CCc2ccc3c(c2)OCO3)NC(=O)c2ccccc2N1` (stereo unspecified) the Potency was inconclusive: 31.6 µM [inhibitor, partial curve]. For `CCOC(=O)c1nc(N2CCN(C(=O)OCC)CC2)c2c3c(sc2n1)CCCC3`, the Potency was inconclusive: 17.8 µM [inhibitor, partial curve]. In the case of `Cc1csc(NC(=O)c2cc3c(C)nn(Cc4ccccc4Cl)c3s2)n1`, the Potency is reported as inconclusive: 15.8 µM [inhibitor, partial curve]. In the case of `CC(=O)N1CC[n+]2c(-c3ccc(Cl)cc3)csc21`, the Potency is reported as active: 17.8 µM. With `CCN(CC)C(=O)c1sc2nc(-c3ccncc3)[nH]c(=O)c2c1C` the Potency was inconclusive: 4.47 µM [inhibitor, partial curve]. For `N#Cc1cccc(NC(=O)N2CC[C@@]3(CCCN(C(=O)c4cccc(F)c4)C3)C2)c1`, the activity change, negative = inhibition was inactive: -7.91%. In the case of `Cc1c(C#N)c(N)nc2c3c(sc12)NC(=O)CC3c1ccc(Cl)cc1` (stereo unspecified), the Potency is reported as inconclusive: 44.7 µM [inhibitor, partial curve, poor fit]. For `CCCCc1cc(=O)oc2c(CN(C)C)c(O)c(Cl)cc12`, the Potency was inconclusive: 4.47 µM [inhibitor, full curve]. With `CCN1C(=O)c2cccc3c(S(=O)(=O)Nc4ccccn4)ccc1c23` the activity change, negative = inhibition was inactive: -5.03%. In the case of `COc1ccc(-c2nnc(NC(=O)C(C)C)s2)c(OC)c1`, the Potency is reported as inconclusive: 28.2 µM [inhibitor, partial curve]. `CC(C)C(OC(=O)C1CCCO1)C(=O)NC1CCCC1` (stereo unspecified) was tested, and the Potency was inconclusive: 22.4 µM [inhibitor, single point]. With `Cc1ccc(S(=O)(=O)c2cc3c(=O)n4ccccc4nc3n(CC3CCCO3)c2=N)cc1C` (stereo unspecified) the Potency was inconclusive: 14.1 µM [inhibitor, partial curve]. `COc1cc2c(cc1OC)CN(C(=O)c1cc3ccccc3oc1=O)CC2` was tested, and the activity change, negative = inhibition was inactive: -0.953%. For `COc1cccc(-c2ccc(C#N)c(OC(=O)c3ccc(Cl)cc3)n2)c1`, the Potency was inconclusive: 28.2 µM [inhibitor, partial curve]. For `CS(=O)(=O)N1CCC[C@@]2(CCN(Cc3ccccc3)C2)C1`, the activity change, negative = inhibition was inactive: -7.79%. With `O=C(c1ccccc1)c1nc2ccccc2[nH]c1=O` the Potency was active: 25.1 µM. In the case of `O=C(NCc1cccs1)c1cnn2cccnc12`, the Potency is reported as inconclusive: 17.8 µM [inhibitor, partial curve]. With `CCOc1ccc(-c2csc(N)c2C(=O)OC)cc1` the Potency was active: 14.1 µM. For `CCOC(=O)CCc1c(C)n(CC)c2cc(-c3ccccc3OC)nn2c1=O`, the Potency was inconclusive: 28.2 µM [inhibitor, partial curve]. With `O=c1c(CCc2ccccc2)nc2cnc(N3CCNCC3)nc2n1CCc1ccccc1` the Potency was inconclusive: 15.8 µM [inhibitor, partial curve]. With `CCC(C(=O)Nc1cc(C(=O)Nc2cc(C)ccn2)ccc1Cl)c1ccccc1` (stereo unspecified) the Potency was inconclusive: 31.6 µM [inhibitor, single point]. In the case of `COc1ccc(OCC(=O)Sc2ccc(C)cc2)cc1`, the Potency is reported as active: 14.1 µM. In the case of `CCOc1ccc(NS(=O)(=O)c2cc(NC(=O)c3ccc(C)cc3)ccc2Cl)cc1`, the Potency is reported as inconclusive: 25.1 µM [inhibitor, partial curve, poor fit]. In the case of `COc1ccc(-c2noc(-c3ccc4c(c3)OCO4)n2)cc1`, the Potency is reported as inconclusive: 17.8 µM [inhibitor, partial curve]. With `O=C(O)COc1cccc2ccccc12` the Potency was inconclusive: 22.4 µM [inhibitor, partial curve]. For `Cc1ccc(C(=O)CCNc2ccccc2)o1`, the activity change, negative = inhibition was inactive: -3.82%. With `O=C1NC(c2cccc([N+](=O)[O-])c2)=CCN1c1ccccc1O` the Potency was inconclusive: 35.5 µM [inhibitor, partial curve] and inconclusive: 25.1 µM [inhibitor, partial curve]. With `COc1ccccc1N(C)S(=O)(=O)c1ccc(C(=O)NCC(C)C)cc1` the Potency was active: 25.1 µM. For `CCC/C=C(\CCC)C(NS(=O)(=O)CC12CCC(CC1=O)C2(C)C)c1ccc(C(=O)OC)cc1` (stereo unspecified), the Potency was active: 22.4 µM. For `COc1ccc(C(=O)Nc2ccc(NC(=O)c3cccs3)cc2)cc1Cl`, the Potency was inconclusive: 39.8 µM [inhibitor, single point]. `COc1ccc(-c2nnc3ccc(SC)nn23)cc1` was tested, and the Potency was active: 31.6 µM. With `CCCSc1nc2sc3c(c2c(=O)[nH]1)CCN(Cc1ccccc1)C3` the Potency was inconclusive: 31.6 µM [inhibitor, partial curve]. In the case of `CCOC(=O)CSc1nc(N)c(C#N)cc1C#N`, the Potency is reported as inconclusive: 25.1 µM [inhibitor, partial curve]. In the case of `CC(C)OC(=O)/C(=C\c1ccc2c(c1)c1ccccc1n2C)NC(=O)c1ccccc1`, the Potency is reported as inconclusive: 28.2 µM [inhibitor, partial curve].
